Article PMC3961690
Some values that stand alone complete this part of the results.

Legend:
Asp455 = Asp455 (UniProt position 474, KPVMLDLYADW); assay: NMR; settings: 298 K, 1 mM protein, isolated domain, folded
Cys461 = Cys461 (UniProt position 480, LYADWCVACKE); assay: NMR; settings: 298 K, not stated (pH adjusted with 0.1 M DCl or NaOD), 1 mM protein, reduced (Cys-461/Cys-464 dithiol), isolated domain, folded

Substance | pKa (Asp455; not stated, reduced (dithiol), higher pKa of double sigmoidal fit) | pKa (Asp455; not stated, reduced (dithiol), lower pKa of double sigmoidal fit) | pKa (Cys461; pK1 from 13Cβ chemical shift) | pKa (Cys461; pK2 from 13Cβ chemical shift) | pKa (Cys461; pK2 from Hβ1 chemical shift) | pKa (Asp455; not stated (pH adjusted with 0.1 M DCl or NaOD), oxidised (Cys-461-Cys-464 disulfide), Cys-461 13Cβ reporter) | pKa (Asp455; not stated (pH adjusted with 0.1 M DCl or NaOD), oxidised (Cys-461-Cys-464 disulfide), Cys-461 Hβ2 reporter) | pKa (Asp455; not stated (pH adjusted with 0.1 M DCl or NaOD), oxidised (Cys-461-Cys-464 disulfide), Cys-464 Hβ1 reporter) | pKa (Asp455; not stated (pH adjusted with 0.1 M DCl or NaOD), oxidised (Cys-461-Cys-464 disulfide), Cys-464 Hβ2 reporter) | pKa (Asp455; not stated (pH adjusted with 0.1 M DCl or NaOD), reduced (Cys-461/Cys-464 dithiol), Cys-461 13Cβ reporter) | pKa (Asp455; not stated (pH adjusted with 0.1 M DCl or NaOD), reduced (Cys-461/Cys-464 dithiol), Cys-461 Hβ2 reporter) | pKa (Asp455; not stated (pH adjusted with 0.1 M DCl or NaOD), reduced (Cys-461/Cys-464 dithiol), Cys-464 13Cβ reporter) | pKa (Asp455; not stated (pH adjusted with 0.1 M DCl or NaOD), reduced (Cys-461/Cys-464 dithiol), Cys-464 Hβ2 reporter)
DsbD C-terminal domain, Q488A variant (Q488A-cDsbD) (Escherichia coli; Q488A) | 10.4 | 7.3 | 7.7 | 10.5 | 10.0 | – | – | – | – | – | – | – | –
DsbD C-terminal domain, Q488K variant (Q488K-cDsbD) (Escherichia coli; Q488K) | – | – | – | – | – | 8.2 | 8.5 | 8.0 | 8.1 | 8.1 | 7.9 | 7.6 | 7.0
